About 120 (0.25%) of roughly 48,000 compounds were called active. Another 4% or so got no clear call; they are omitted. Calls come from the whole dose curve; as a rule, active = well fitted activation curve with a large enough effect; inconclusive = small, poorly fitted or top-dose-only effect, or another doubt; inactive = no such curve, though single readings can be large or run the other way. Some of the results follow.
assay: Primary qHTS for Identification of Small Molecule Activators of Huntingtin-Antisense Promoter Activity; conditions: HEK293 HTT-AS promoter firefly luciferase reporter (activity 0% = vehicle and -100% = no light), 24 h; series mostly up to 57.5 µM; activity change, positive = activation: at the top concentration; note: nearly all actives have a fitted effect of over 55% in size
Outline: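 HEK293 luciferase promoter-reporter cells (2,500/well) plated 24 h, then compounds added at up to 57.5 uM final for 24 h at 37 °C. Firefly luminescence by Dual-Glo, normalized to vehicle (0%) and zero RLU (-100%).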

Row | Compound | activity change, positive = activation
1 | Cc1noc(Cn2c(=O)c3ccccc3n(CC(=O)Nc3cc(Cl)ccc3C)c2=O)n1 | inactive: -8.07%
2 | CCOC(=O)c1[nH]c2ccccc2c1NC(=O)c1ccc(C)c(C)c1 | inactive: 0.582%
3 | O=C(CSc1n[nH]c(-c2ccccc2)n1)N1CCN(c2ccc(F)cc2)CC1 | inactive: -15.5%
4 | Cc1ccc(-c2nnc(Nc3ccc(OCC(N)=O)cc3)c3ccccc23)cc1S(=O)(=O)NCC1CCCO1 (stereo not drawn) | inactive: -3.92%
5 | O=C(CCn1cnc2onc(-c3ccc(F)cc3)c2c1=O)Nc1cccc(C(F)(F)F)c1 | inactive: -59.2%
6 | O=C(O)C(S)C(S)C(=O)O (stereo not drawn) | inactive: 0.668%
7 | Cc1ccc(-n2c(=O)c3c(cnn3C)n(CC(=O)Nc3cccc(Cl)c3)c2=O)cc1 | inactive: -18.7%
8 | CCC(C(=O)NCCc1ccc(OC)c(OC)c1OC)n1nc(C)c2sc3ccccc3c2c1=O (stereo not drawn) | inactive: -34.7%
9 | Cc1ccc(CNC(=O)C2CCN(C(=O)N3CC(C)Oc4ccc(Cl)cc43)CC2)cc1 (stereo not drawn) | inactive: -19.1%
10 | CCn1nc(C(=O)O)c(=O)c2cc3c(cc21)OCO3 | inactive: -5.24%
11 | Cc1ccc(CSc2nc3ccccc3c3nc(CCn4c(C)nc5ccccc54)nn23)cc1 | inactive: 2.25%
12 | CCc1ccccc1NC(=O)CCn1cccn1 | inactive: -10.9%
13 | Cc1cc(C)cc(NC(=O)C(C)N2Cc3ccccc3C2=O)c1 (stereo not drawn) | inactive: 1.41%
14 | Cc1ccc(C)c(N2CCN(CCCNC(=O)c3cnn(-c4cccc(Cl)c4)c3C3CCN(C(=O)OC(C)(C)C)CC3)CC2)c1 | inactive: -62.4%
15 | Cc1cc(C)cc(NC(=O)NCc2noc3ccccc23)c1 | inactive: -11.6%
16 | CCC(=O)N1CCCc2cc(S(=O)(=O)N3CCC(C(=O)NC4CCC(C)CC4)CC3)ccc21 (stereo not drawn) | inactive: -18.8%
17 | CCOc1ccccc1C(=O)Nc1cccc(-c2nc3ccccc3s2)c1 | inactive: 14%
18 | COc1ccc(-c2cn3c(n2)sc2cc(C(=O)NCCc4ccccc4)ccc23)cc1 | inactive: 5.69%
19 | COc1ccccc1/C=C/c1nc(C#N)c(NCc2ccccc2)o1 | inactive: 7.91%
20 | Cc1ccc(C)c(NC(=O)c2cnc(N3CCCC3)nc2C)c1 | inactive: -7.51%
21 | Cc1cc(CS(=O)(=O)c2ccccc2)cc(OCc2ccc(CN3CCC[C@H]3CO)cc2)c1 | inactive: -2.27%
22 | O=C(OCc1cc(=O)n2nc(C3CC3)sc2n1)c1cccc(NC(=O)c2ccccc2Cl)c1 | inactive: -0.92%
23 | COc1ccc(-n2ncc(C(=O)NCc3cccs3)c2C2CCN(C(=O)OC(C)(C)C)CC2)cc1 | inactive: -12.5%
24 | Cc1cccc(CNC(=O)C2CCN(c3nn4cc(-c5ccc(F)cc5)nc4s3)CC2)c1 | inactive: 28.4%

Row | Compound | activity change, positive = activation
25 | CCc1ccccc1N(CC)C(=O)c1cc2c(s1)-c1ccccc1SC2 | inactive: -26.1%
26 | COCCOC(=O)C1=C(C)NC(C)=C(C(=O)OC/C=C/c2ccccc2)C1c1cccc([N+](=O)[O-])c1 (stereo not drawn) | inactive: -35.7%
27 | O=C(Cc1ccc(Cl)cc1)NC1CC(=O)N(c2ccc3c(c2)OCCO3)C1 (stereo not drawn) | inactive: -9.75%
28 | Cc1cc(=O)n2nc(N3CCC(C(=O)Nc4ccc(Br)c(C)c4)CC3)sc2n1 | inactive: -7.94%
29 | O=S1(=O)OC(c2ccc(O)cc2)(c2ccc(O)cc2)c2ccccc21 | inactive: -26.3%
30 | COCCNC(=O)c1ccc(Cn2c(SCC(N)=O)nc3ccccc3c2=O)cc1 | inactive: -17.6%
31 | Cn1c(SCc2ccc(F)cc2)nc2ccc(C(=O)NCc3cccc(Cl)c3)cc21 | inactive: -23.3%
32 | CCOc1ccccc1C(=O)NCc1ccc2c(c1)CCN2C(=O)c1ccc(F)cc1 | inactive: -1.69%
33 | COc1ccc2c(CNC3CCC(C)CC3)c(C(=O)O)n(Cc3ccc(F)cc3)c2c1 (stereo not drawn) | inactive: -23.2%
34 | COc1cccc(OCCSc2nc3ccccc3n2CC(=O)N2CCOCC2)c1 | inactive: -18.7%
35 | Cc1ccc(N(Cc2cccs2)C(=O)c2ccc(OC(C)C)cc2)cc1 | inactive: -19.7%
36 | COc1ccc(-c2noc(CN(C(=O)c3ccc(C)cc3C)C(C)C)n2)cc1 | inactive: -20.8%
37 | CCOC(=O)c1ccccc1NC(=O)CSc1ccc(-c2sc(C)nc2C)nn1 | inactive: -27.7%
38 | Cc1ccc(C(=O)NCCc2csc(-c3cccc(F)c3)n2)cc1C | inactive: -9.36%
39 | CCN(C(=O)c1c(C)oc2ncnc(N3CCCCC3)c12)c1cc(C)ccc1C | inactive: -6.53%
40 | COc1ccc(C2CC(=O)Nc3c2c(C)nn3-c2nncc(-c3ccccc3)n2)c(OC)c1OC (stereo not drawn) | inactive: -20.6%
41 | COc1cc2nc(NCCc3cccc(C)c3)n3nc(-c4ccccc4)nc3c2cc1OC | inactive: -2.61%
42 | CCOC(=O)c1cccc(NC(=O)COc2ccc3c(C)cc(=O)oc3c2)c1 | inactive: 8.31%
43 | CCOC(=O)c1cnc2c(ccc3ccccc32)c1Nc1ccccc1O | inactive: 3.26%
44 | COc1ccc(CNC(=O)C2CCN(S(=O)(=O)c3cccc(-c4noc(C)n4)c3)CC2)cc1 | inactive: -17.9%
45 | Cc1cccc(Cn2c(CN3CCC(C(=O)NC(C)C)CC3)cc3ccccc32)c1 | inactive: -22.4%
46 | CCOc1ccc(CNC(=O)c2cc3c(=O)oc4ccc(C)cc4c3s2)cc1 | inactive: 5.91%
47 | COc1ccc(C2C(C(=O)Nc3ccccc3)=C(C)Nc3nc(-c4ccc(Cl)cc4)nn32)cc1 (stereo not drawn) | inactive: -60.7%
48 | Cc1ccc(NC(=O)CSCc2cc(=O)c3ccccc3[nH]2)c(C)c1 | inactive: -22.1%

Source: PubChem BioAssay AID1508624 (National Center for Advancing Translational Sciences (NCATS), 2021)
